Measurements reported in patent publication US9284335B2, “Substituted pyrido[3,2-e][1,2,4]triazolo[1,5-c]pyrimidines, pyrido[2,3-e][1,2,4]triazolo[1,5-c]pyrimidines and/or [1,2,4]triazolo[1,5-c]pteridines for treatment of central nervous system diseases and disorders” (DART NEUROSCIENCE (CAYMAN) LTD., priority 2012, dated 2016).

The compounds below were run against full-length recombinant NH-terminal GST tagged human PDE1b enzyme (Homo sapiens, UniProt Q01064) (assay: PDE1b inhibitory assay (IMAP TR-FRET)). Conditions: negative log of half-maximal molar inhibitory concentration; FAM-cAMP 200 nM; reported as bins; read-out: PDE1b (pEC50) (converted).
Assay type: biochemical

**Q.** With `COc1ccc(Cn2c(=O)n3ncnc3c3cc(Br)cnc32)cc1` [Example 1, 9-Bromo-6-(4-methoxybenzyl)pyrido[3,2-e][1,2,4]triazolo[1,5-c]pyrimidin-5(6H)-one] as the compound, how does the EC50 read?
**A.** 100 to 1000 nM

**Q.** How did the EC50 turn out when `COc1ccc(Cn2c(=O)n3ncnc3c3ncc(Br)cc32)cc1` [Example 2, 8-Bromo-6-(4-methoxybenzyl)pyrido[2,3-e][1,2,4]triazolo[1,5-c]pyrimidin-5(6H)-one] was run?
**A.** 1000 to 10000 nM

**Q.** `COc1ccc(Cn2c(=O)n3ncnc3c3ccc(C(OC)OC)nc32)cc1` [Example 3, 8-(Dimethoxymethyl)-6-(4-methoxybenzyl)pyrido[3,2-e][1,2,4]triazolo[1,5-c]pyrimidin-5(6H)-one] was tested. Which EC50 did it give?
**A.** 1000 to 10000 nM

**Q.** With `COc1ccc(Cn2c(=O)n3ncnc3c3nc(Br)cnc32)cc1` [Example 4, 9-Bromo-6-(4-methoxybenzyl)-[1,2,4]triazolo[1,5-c]pteridin-5(6H)-one] as the compound, how does the EC50 read?
**A.** 100 to 1000 nM

**Q.** `COc1ccc(Cn2c(=O)n3ncnc3c3cc(-c4ccc(OC)c(OC)c4)cnc32)cc1` [Example 5, 9-(3,4-Dimethoxyphenyl)-6-(4-methoxybenzyl)pyrido[3,2-e][1,2,4]triazolo[1,5-c]pyrimidin-5(6H)-one] was tested. Which EC50 did it give?
**A.** < 100 nM

**Q.** `COc1ccc(Cn2c(=O)n3ncnc3c3cc(-c4ccc(OC)nc4)cnc32)cc1` [Example 6, 6-(4-Methoxybenzyl)-9-(6-methoxypyridin-3-yl)pyrido[3,2-e][1,2,4]triazolo[1,5-c]pyrimidin-5(6H)-one] was tested. Which EC50 did it give?
**A.** 100 to 1000 nM

**Q.** `COc1ccc(Cn2c(=O)n3ncnc3c3cc(-c4cccnc4OC)cnc32)cc1` [Example 7, 6-(4-Methoxybenzyl)-9-(2-methoxypyridin-3-yl)pyrido[3,2-e][1,2,4]triazolo[1,5-c]pyrimidin-5(6H)-one] was tested. Which EC50 did it give?
**A.** < 100 nM

**Q.** For `COc1ccc(Cn2c(=O)n3ncnc3c3cc(-n4nc(C)ccc4=O)cnc32)cc1` [Example 8, 6-(4-Methoxybenzyl)-9-(3-methyl-6-oxopyridazin-1(6H)-yl)pyrido[3,2-e][1,2,4]triazolo[1,5-c]pyrimidin-5(6H)-one], which EC50 is on record?
**A.** 100 to 1000 nM

**Q.** For `COc1ccc(Cn2c(=O)n3ncnc3c3cc(N4CCN(C5CC5)CC4)cnc32)cc1` [Example 9, 9-(4-cyclopropylpiperazin-1-yl)-6-(4-methoxybenzyl)pyrido[3,2-e][1,2,4]triazolo[1,5-c]pyrimidin-5(6H)-one], which EC50 is on record?
**A.** 100 to 1000 nM

**Q.** How did the EC50 turn out when `COc1ccc(Cn2c(=O)n3ncnc3c3cc(N[C@H]4CCCC[C@@H]4N)cnc32)cc1` [Example 10, 9-(((1S,2S)-2-Aminocyclohexyl)amino)-6-(4-methoxybenzyl)pyrido[3,2-e][1,2,4]triazolo[1,5-c]pyrimidin-5(6H)-one] was run?
**A.** 1000 to 10000 nM

**Q.** With `COc1ccc(Cn2c(=O)n3ncnc3c3nc(N(C)C4CCN(C)CC4)cnc32)cc1` [Example 11, 6-(4-Methoxybenzyl)-9-(methyl(1-methylpiperidin-4-yl)amino)-[1,2,4]triazolo[1,5-c]pteridin-5(6H)-one] as the compound, how does the EC50 read?
**A.** 1000 to 10000 nM

**Q.** For `COc1ccc(Cn2c(=O)n3ncnc3c3nc(N(C)CCN(C)C)cnc32)cc1` [Example 12, 9-((2-(Dimethylamino)ethyl)(methyl)amino)-6-(4-methoxybenzyl)-[1,2,4]triazolo[1,5-c]pteridin-5(6H)-one], which EC50 is on record?
**A.** 1000 to 10000 nM

**Q.** For `COCCN1CCN(c2cnc3c(c2)c2ncnn2c(=O)n3Cc2ccc(OC)cc2)CC1` [Example 13, 6-(4-Methoxybenzyl)-9-(4-(2-methoxyethyl)piperazin-1-yl)pyrido[3,2-e][1,2,4]triazolo[1,5-c]pyrimidin-5(6H)-one], which EC50 is on record?
**A.** 100 to 1000 nM

**Q.** For `COc1ccc(Cn2c(=O)n3ncnc3c3cc(N4CCC(N(C)C)C4)cnc32)cc1` (stereo not shown) [Example 14, 9-(3-(Dimethylamino)pyrrolidin-1-yl)-6-(4-methoxybenzyl)pyrido[3,2-e][1,2,4]triazolo[1,5-c]pyrimidin-5(6H)-one], which EC50 is on record?
**A.** 100 to 1000 nM

**Q.** `COc1ccc(Cn2c(=O)n3ncnc3c3cc(N4CCC(N(C)C)CC4)cnc32)cc1` [Example 15, 9-(4-(Dimethylamino)piperidin-1-yl)-6-(4-methoxybenzyl)pyrido[3,2-e][1,2,4]triazolo[1,5-c]pyrimidin-5(6H)-one] was tested. Which EC50 did it give?
**A.** 100 to 1000 nM

**Q.** Which EC50 does the source give for `COc1ccc(Cn2c(=O)n3ncnc3c3cc(N(C)C4CCOCC4)cnc32)cc1` [Example 16, 6-(4-Methoxybenzyl)-9-(methyl(tetrahydro-2H-pyran-4-yl)amino)pyrido[3,2-e][1,2,4]triazolo[1,5-c]pyrimidin-5(6H)-one] here?
**A.** 100 to 1000 nM

**Q.** With `COc1ccc(Cn2c(=O)n3ncnc3c3cc(N4C[C@@H](C)O[C@@H](C)C4)cnc32)cc1` [Example 17, 9-((2S,6R)-2,6-Dimethylmorpholino)-6-(4-methoxybenzyl)pyrido[3,2-e][1,2,4]triazolo[1,5-c]pyrimidin-5(6H)-one] as the compound, how does the EC50 read?
**A.** 100 to 1000 nM

**Q.** With `COc1ccc(Cn2c(=O)n3ncnc3c3cc(N(C)CCCN(C)C)cnc32)cc1` [Example 18, 9-((3-(Dimethylamino)propyl)(methyl)amino)-6-(4-methoxybenzyl)pyrido[3,2-e][1,2,4]triazolo[1,5-c]pyrimidin-5(6H)-one] as the compound, how does the EC50 read?
**A.** 1000 to 10000 nM

**Q.** How did the EC50 turn out when `COc1ccc(Cn2c(=O)n3ncnc3c3cc(N4CCN(S(C)(=O)=O)CC4)cnc32)cc1` [Example 19, 6-(4-Methoxybenzyl)-9-(4-(methylsulfonyl)piperazin-1-yl)pyrido[3,2-e][1,2,4]triazolo[1,5-c]pyrimidin-5(6H)-one] was run?
**A.** 100 to 1000 nM

**Q.** `COc1ccc(Cn2c(=O)n3ncnc3c3cc(CCNC(=O)OCc4ccccc4)cnc32)cc1` [Example 20, Benzyl (2-(6-(4-methoxybenzyl)-5-oxo-5,6-dihydropyrido[3,2-e][1,2,4]triazolo[1,5-c]pyrimidin-9-yl)ethyl)carbamate] was tested. Which EC50 did it give?
**A.** 100 to 1000 nM

**Q.** How did the EC50 turn out when `COc1ccc(Cn2c(=O)n3ncnc3c3ccc(CN4CCOCC4)nc32)cc1` [Example 21, 6-(4-Methoxybenzyl)-8-(morpholinomethyl)pyrido[3,2-e][1,2,4]triazolo[1,5-c]pyrimidin-5(6H)-one] was run?
**A.** 1000 to 10000 nM

**Q.** Which EC50 does the source give for `COc1ccc(Cn2c(=O)n3ncnc3c3cc(CN4CCCCC4)cnc32)cc1` [Example 22, 6-(4-Methoxybenzyl)-9-(piperidin-1-ylmethyl)pyrido[3,2-e][1,2,4]triazolo[1,5-c]pyrimidin-5(6H)-one] here?
**A.** 100 to 1000 nM

**Q.** Which EC50 does the source give for `COc1ccc(Cn2c(=O)n3ncnc3c3cc(CN4CCSCC4)cnc32)cc1` [Example 23, 6-(4-Methoxybenzyl)-9-(thiomorpholinomethyl)pyrido[3,2-e][1,2,4]triazolo[1,5-c]pyrimidin-5(6H)-one] here?
**A.** 100 to 1000 nM

**Q.** With `O=c1n(Cc2ccc(Cl)cc2)c2ncc(CN3CCOCC3)cc2c2ncnn12` [Example 24, 6-(4-Chlorobenzyl)-9-(morpholinomethyl)pyrido[3,2-e][1,2,4]triazolo[1,5-c]pyrimidin-5(6H)-one] as the compound, how does the EC50 read?
**A.** 100 to 1000 nM

**Q.** How did the EC50 turn out when `O=c1n(Cc2ccc(Cl)cc2)c2ncc(CN3CCCCC3)cc2c2ncnn12` [Example 25, 6-(4-Chlorobenzyl)-9-(piperidin-1-ylmethyl)pyrido[3,2-e][1,2,4]triazolo[1,5-c]pyrimidin-5(6H)-one] was run?
**A.** 1000 to 10000 nM

**Q.** With `C[C@@H]1CN(Cc2cnc3c(c2)c2ncnn2c(=O)n3Cc2ccc(Cl)cc2)C[C@H](C)O1` [Example 26, 6-(4-Chlorobenzyl)-9-(((2S,6R)-2,6-dimethylmorpholino)methyl)pyrido[3,2-e][1,2,4]triazolo[1,5-c]pyrimidin-5(6H)-one] as the compound, how does the EC50 read?
**A.** 100 to 1000 nM

**Q.** Which EC50 does the source give for `COc1ccc(Cn2c(=O)n3ncnc3c3cc(CCN)cnc32)cc1` [Example 27, 9-(2-Aminoethyl)-6-(4-methoxybenzyl)pyrido[3,2-e][1,2,4]triazolo[1,5-c]pyrimidin-5(6H)-one] here?
**A.** 1000 to 10000 nM

**Q.** `COc1ccc(Cn2c(=O)n3ncnc3c3cc(CCNC4CCOCC4)cnc32)cc1` [Example 28, 6-(4-Methoxybenzyl)-9-(2-((tetrahydro-2H-pyran-4-yl)amino)ethyl)pyrido[3,2-e][1,2,4]triazolo[1,5-c]pyrimidin-5(6H)-one] was tested. Which EC50 did it give?
**A.** 1000 to 10000 nM

**Q.** Which EC50 does the source give for `COc1ccc(Cn2c(=O)n3ncnc3c3cc(CCNC(C)c4ccccc4)cnc32)cc1` (stereo not shown) [Example 29, 6-(4-Methoxybenzyl)-9-(2-((1-phenylethyl)amino)ethyl)pyrido[3,2-e][1,2,4]triazolo[1,5-c]pyrimidin-5(6H)-one] here?
**A.** 100 to 1000 nM

**Q.** `C=Cc1cnc2c(c1)c1ncnn1c(=O)n2Cc1ccc(OC)cc1` [Example 30, 6-(4-Methoxybenzyl)-9-vinylpyrido[3,2-e][1,2,4]triazolo[1,5-c]pyrimidin-5(6H)-one] was tested. Which EC50 did it give?
**A.** 100 to 1000 nM

**Q.** For `COCOCc1cnc2c(c1)c1ncnn1c(=O)n2Cc1ccc(OC)cc1` [Example 31, 6-(4-Methoxybenzyl)-9-((methoxymethoxy)methyl)pyrido[3,2-e][1,2,4]triazolo[1,5-c]pyrimidin-5(6H)-one], which EC50 is on record?
**A.** 100 to 1000 nM

**Q.** `C=C(OCC)c1cnc2c(c1)c1ncnn1c(=O)n2Cc1ccc(OC)cc1` [Example 32, 9-(1-Ethoxyvinyl)-6-(4-methoxybenzyl)pyrido[3,2-e][1,2,4]triazolo[1,5-c]pyrimidin-5(6H)-one] was tested. Which EC50 did it give?
**A.** 100 to 1000 nM

**Q.** For `COc1ccc(Cn2c(=O)n3ncnc3c3cc(CO)cnc32)cc1` [Example 33, 9-(Hydroxymethyl)-6-(4-methoxybenzyl)pyrido[3,2-e][1,2,4]triazolo[1,5-c]pyrimidin-5(6H)-one], which EC50 is on record?
**A.** 100 to 1000 nM

**Q.** For `COc1ccc(Cn2c(=O)n3ncnc3c3cc(CN4CC5CC4CO5)cnc32)cc1` (stereo not shown) [Example 34, 9-(2-Oxa-5-azabicyclo[2.2.1]heptan-5-ylmethyl)-6-(4-methoxybenzyl)pyrido[3,2-e][1,2,4]triazolo[1,5-c]pyrimidin-5(6H)-one], which EC50 is on record?
**A.** 100 to 1000 nM

**Q.** How did the EC50 turn out when `COc1ccc(Cn2c(=O)n3ncnc3c3cc(CN(C)C)cnc32)cc1` [Example 35, 9-((Dimethylamino)methyl)-6-(4-methoxybenzyl)pyrido[3,2-e][1,2,4]triazolo[1,5-c]pyrimidin-5(6H)-one] was run?
**A.** 1000 to 10000 nM

**Q.** How did the EC50 turn out when `COc1ccc(Cn2c(=O)n3ncnc3c3cc(CN4C[C@@H](C)O[C@@H](C)C4)cnc32)cc1` [Example 36, 9-(((2S,6R)-2,6-dimethylmorpholino)methyl)-6-(4-methoxybenzyl)pyrido[3,2-e][1,2,4]triazolo[1,5-c]pyrimidin-5(6H)-one] was run?
**A.** < 100 nM

**Q.** `COc1ccc(Cn2c(=O)n3ncnc3c3cc(CN4CCN(C)CC4)cnc32)cc1` [Example 37] was tested. Which EC50 did it give?
**A.** 100 to 1000 nM
